# Experimental data reported in US20130337044.
# B1: Factor B (protein)
# chain: TPWSLARPQGSCSLEGVEIKGGSFRLLQEGQALEYVCPSGFYPYPVQTRTCRSTGSWSTLKTQDQKTVRKAECRAIHCPRPHDFENGEYWPRSPYYNVSDEISFHCYDGYTLRGSANRTCQVNGRWSGQTAICDNGAGYCSNPGIPIGTRKVGSQYRLEDSVTYHCSRGLTLRGSQRRTCQEGGSWSGTEPSCQDSFMYDTPQEVAEAFLSSLTETIEGVDAEDGHGPGEQQKRKIVLDPSGSMNIYLVLDGSDSIGASNFTGAKKCLVNLIEKVASYGVKPRYGLVTYATYPKIWVKVSEADSSNADWVTKQLNEINYEDHKLKSGTNTKKALQAVYSMMSWPDDVPPEGWNRTRHVIILMTDGLHNMGGDPITVIDEIRDLLYIGKDRKNPREDYLDVYVFGVGPLVNQVNINALASKKDNEQHVFKVKDMENLEDVFYQMIDESQSLSLCGMVWEHRKGTDYHKQPWQAKISVIRPSKGHESCMGAVVSEYFVLTAAHCFTVDDKEHSIKVSVGGEKRDLEIEVVLFHPNYNINGKKEAGIPEFYDYDVALIKLKNKLKYGQTIRPICLPCTEGTTRALRLPPTTTCQQQKEELLPAQDIKALFVSEEEKKLTRKEVYIKNGDKKGSCERDAQYAPGYDKVKDISEVVTPRFLCTGGVSPYADPNTCRGDSGGPLIVHKRSRFIQVGVISWGVVDVCKNQKRQKQVPAHARDFHINLFQVLPWLKEKLQDEDLGFL
# Target: human C3, P01024
# Sequence (P01024 whole entry, looked up): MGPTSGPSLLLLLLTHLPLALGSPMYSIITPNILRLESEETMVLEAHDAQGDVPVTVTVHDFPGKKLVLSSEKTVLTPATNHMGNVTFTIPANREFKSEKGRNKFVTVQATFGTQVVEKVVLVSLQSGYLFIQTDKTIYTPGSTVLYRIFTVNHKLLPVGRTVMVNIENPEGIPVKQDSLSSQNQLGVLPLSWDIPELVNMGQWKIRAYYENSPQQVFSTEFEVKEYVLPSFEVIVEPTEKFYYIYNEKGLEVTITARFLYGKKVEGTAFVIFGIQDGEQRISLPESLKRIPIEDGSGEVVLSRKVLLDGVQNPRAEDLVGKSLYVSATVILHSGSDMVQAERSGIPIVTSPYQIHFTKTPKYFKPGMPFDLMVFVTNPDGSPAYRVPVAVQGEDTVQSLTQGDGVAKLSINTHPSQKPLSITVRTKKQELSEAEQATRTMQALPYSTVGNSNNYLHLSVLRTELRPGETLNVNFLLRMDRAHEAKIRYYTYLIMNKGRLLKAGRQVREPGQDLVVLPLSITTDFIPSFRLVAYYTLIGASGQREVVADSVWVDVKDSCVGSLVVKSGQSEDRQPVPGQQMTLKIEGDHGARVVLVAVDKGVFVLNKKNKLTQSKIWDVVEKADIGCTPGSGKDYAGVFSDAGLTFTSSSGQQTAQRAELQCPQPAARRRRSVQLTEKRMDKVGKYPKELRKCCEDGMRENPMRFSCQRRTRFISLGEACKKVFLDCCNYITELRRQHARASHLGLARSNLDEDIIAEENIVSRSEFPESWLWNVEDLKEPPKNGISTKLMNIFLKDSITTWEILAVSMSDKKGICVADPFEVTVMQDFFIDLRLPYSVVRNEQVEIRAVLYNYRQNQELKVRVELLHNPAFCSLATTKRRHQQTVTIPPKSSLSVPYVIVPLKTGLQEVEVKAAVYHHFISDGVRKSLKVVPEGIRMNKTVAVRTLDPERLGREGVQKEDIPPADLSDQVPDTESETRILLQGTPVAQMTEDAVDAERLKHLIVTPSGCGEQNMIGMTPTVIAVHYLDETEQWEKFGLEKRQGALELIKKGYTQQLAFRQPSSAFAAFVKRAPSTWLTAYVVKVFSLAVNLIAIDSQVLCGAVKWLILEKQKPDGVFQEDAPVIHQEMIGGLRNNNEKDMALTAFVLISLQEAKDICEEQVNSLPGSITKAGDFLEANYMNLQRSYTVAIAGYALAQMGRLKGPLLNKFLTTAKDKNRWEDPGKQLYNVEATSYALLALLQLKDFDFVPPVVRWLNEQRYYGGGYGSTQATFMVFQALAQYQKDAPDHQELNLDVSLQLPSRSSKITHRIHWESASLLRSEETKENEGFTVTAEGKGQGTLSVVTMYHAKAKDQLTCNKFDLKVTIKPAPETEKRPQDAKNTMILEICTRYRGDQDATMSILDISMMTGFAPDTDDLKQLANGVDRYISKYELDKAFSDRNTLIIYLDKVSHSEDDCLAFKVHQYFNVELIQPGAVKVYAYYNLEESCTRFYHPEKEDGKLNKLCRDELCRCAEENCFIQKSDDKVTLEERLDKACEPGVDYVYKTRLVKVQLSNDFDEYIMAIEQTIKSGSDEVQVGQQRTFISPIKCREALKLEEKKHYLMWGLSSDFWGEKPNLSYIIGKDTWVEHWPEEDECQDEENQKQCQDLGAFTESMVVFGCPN
protein,measurement,value
B1,convertase activity in the stability assay (fluorogenic substrate),"the C3b,Bb convertase complex exhibited no activity"
